Experimental findings from article PMC4336329 (PLoS ONE, 2015) are described below.

About 14,000 (4.5%) of roughly 310,000 compounds showed an effect of 50% or more. The effect is printed as a negative number. The list shows a part of the results.
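Also: peak tail current of the secondary pulse compared with the same well before compound.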

Chain of human ether-à-go-go-related gene (hERG) potassium channel (Q12809 whole entry, looked up): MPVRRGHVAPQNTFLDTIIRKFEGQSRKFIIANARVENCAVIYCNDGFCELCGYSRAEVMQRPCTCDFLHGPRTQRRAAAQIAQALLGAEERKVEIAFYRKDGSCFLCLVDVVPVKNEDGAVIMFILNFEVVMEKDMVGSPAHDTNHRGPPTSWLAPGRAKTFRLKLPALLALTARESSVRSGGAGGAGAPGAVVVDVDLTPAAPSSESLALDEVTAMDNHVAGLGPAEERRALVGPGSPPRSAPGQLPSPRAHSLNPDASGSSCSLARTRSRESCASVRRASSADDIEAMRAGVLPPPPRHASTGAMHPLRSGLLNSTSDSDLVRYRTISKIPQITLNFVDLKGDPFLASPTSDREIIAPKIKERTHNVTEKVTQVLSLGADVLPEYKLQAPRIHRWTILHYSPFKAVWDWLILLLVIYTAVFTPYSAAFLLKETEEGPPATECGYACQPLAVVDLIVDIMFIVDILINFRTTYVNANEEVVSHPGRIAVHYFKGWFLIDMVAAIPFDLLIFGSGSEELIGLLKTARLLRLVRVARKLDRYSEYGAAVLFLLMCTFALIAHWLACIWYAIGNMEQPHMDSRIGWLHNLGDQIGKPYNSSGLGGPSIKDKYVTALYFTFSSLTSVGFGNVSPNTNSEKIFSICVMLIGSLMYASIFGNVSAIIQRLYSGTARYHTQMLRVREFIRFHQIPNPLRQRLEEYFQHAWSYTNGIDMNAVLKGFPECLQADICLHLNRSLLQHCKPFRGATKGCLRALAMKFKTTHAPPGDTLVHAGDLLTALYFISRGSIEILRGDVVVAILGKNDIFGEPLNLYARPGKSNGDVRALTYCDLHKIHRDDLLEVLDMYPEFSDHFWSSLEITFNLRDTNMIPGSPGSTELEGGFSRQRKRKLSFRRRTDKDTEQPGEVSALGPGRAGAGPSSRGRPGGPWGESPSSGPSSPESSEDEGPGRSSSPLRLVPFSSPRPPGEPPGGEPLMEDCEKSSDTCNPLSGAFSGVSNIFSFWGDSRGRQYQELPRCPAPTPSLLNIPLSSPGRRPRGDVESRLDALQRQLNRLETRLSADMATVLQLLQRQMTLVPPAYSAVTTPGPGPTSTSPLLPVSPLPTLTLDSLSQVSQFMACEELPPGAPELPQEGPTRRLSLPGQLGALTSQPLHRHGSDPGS

This test has as its target human ether-à-go-go-related gene (hERG) potassium channel (human, UniProt Q12809). Put plainly: primary screen, population patch clamp on CHO cells stably expressing hERG.
For the compound `Cc1ccc(C)c(NC(=O)c2cc(S(=O)(=O)N3CCCCC3)c[nH]2)c1`, the “hERG current change (%, negative = inhibition) at 10uM” value is listed as -5%. To `COc1ccc(CCNC(=O)c2cccc(S(=O)(=O)N3CCOCC3)c2)cc1OC` belongs 1.15%; to `Cc1cc(C(=O)CS(=O)(=O)c2ccccc2)cc(C)c1OC(=O)N(C)C`, 10.2%. For `COC(=O)c1sccc1NC(=O)C1CC(C)=C(C)CC1C(=O)O` (stereo not drawn), the “hERG current change (%, negative = inhibition) at 10uM” value is on record as 18.5%. Under `COc1ccc(OCC(O)CNC(=O)c2c(-c3ccccc3)noc2C)cc1` (stereo not drawn) stands -8.1%. Consider `O=C(/C=C/c1ccccc1)NNC1=NS(=O)(=O)c2ccccc21`, for which the “hERG current change (%, negative = inhibition) at 10uM” value is listed as 23.6%. Under `CCOC(=O)C1=C(O)C(=O)N(CCCn2ccnc2)C1c1ccc(C)cc1` (stereo not drawn) stands 24.3%; under `CCOC(=O)c1ccc(N/C=C/C(=O)c2ccccc2)cc1`, 16.6%; under `CCOc1cccc(/C=N/N2CCN(c3ccc(Cl)cc3)CC2)c1O`, 15.5%. `Cc1ccc(S(=O)(=O)CCC#N)cc1`: the “hERG current change (%, negative = inhibition) at 10uM” value amounted to 13%.

For `COc1ccc(/C=N/c2oc(-c3ccccc3)cc2C#N)cc1`, the “hERG current change (%, negative = inhibition) at 10uM” value came out at 10.5%. To `O=c1[nH]c(/C=C\c2cccc(O)c2)nc(O)c1[N+](=O)[O-]` belongs 18%; to `O=C(CN1CCCCC1)Nc1cccc(Cl)c1Cl`, -1.14%; to `O=C(c1cccs1)N(Cc1ccco1)c1nc(-c2ccc(F)cc2)cs1`, -6.95%. To `O=C(CCS(=O)(=O)c1ccccc1)Nc1nc2cc3c(cc2s1)OCO3` belongs 8.15%; to `O=C(CSCc1ccccc1Cl)Nc1ccc(C(=O)O)cc1`, 19.6%; to `CC(C)(C)CN1CCN(Cc2cc3ccccc3[nH]2)CC1CCO` (stereo not drawn), -8.03%. To `O=C(CCC(=O)N1CCOc2ccc(Cl)cc21)NCCCN1CCC(Cc2ccccc2)CC1` belongs -75%; to `O=c1nc2s/c(=C\c3ccco3)c(=O)n2nc1Cc1ccc(F)cc1`, -7.6%; to `C=C1CCC[C@]2(C)C[C@H]3OC(=O)C(CN4CC(C)OC(C)C4)[C@H]3C[C@@H]12` (stereo partly drawn), -7.12%. As to `CCOC(=O)[C@@H]1[C@H]2COc3cc(OC)ccc3[C@@H]2N2C(=O)N(c3ccc(Cl)cc3)C(=O)[C@@]12C`, the “hERG current change (%, negative = inhibition) at 10uM” value is recorded as -3.36%. For `O=C(c1ccccc1F)N1CCN(c2ncccn2)CC1`, the “hERG current change (%, negative = inhibition) at 10uM” value worked out at 3.24%. To `C/C(=N\Nc1nccnc1Cl)c1ccc(Cl)c(Cl)c1` belongs -5.91%. Under `O=C(Nc1ccccc1C(F)(F)F)N1CCN(C(c2ccccc2)c2ccccc2)CC1` stands 15.5%.
